{"source": "the supplement of paper PMC8728848", "binders": {"B1": {"name": "PX14367A-bth-493-35-493 (Bacteroides thetaiotaomicron) (protein)", "chain": "VSSDQVAVAGNAERLFNGAWYNLFEYGTTYANIGYRALQCQDDMMASDVVSRPKYGFNSSYQFNDVAIPSDGRTSFAWYLIYKTIDNCNTAISIKGDSEELRQAQGQALALRAFCYLHLVQHYQFTYLKDKDAPCVPIYTEPTTSGTKPKGKSTVAQVYQQIFDDLNLAQDYLTNYVRKGDGQKFKPNTDVVNGLMARAYLLTGQWGEAAKAAEAARKGYSLMTTTAEYEGFNNISNKEWIWGSPQTLSQSDASYNFYYLDATYVGAYSSFMADPHLMDTFVKGDIRLPLFQWMREGYLGYKKFHMRSDDTADLVLMRSAEMYLIEAEAKVRDGVALDQAVAPLNTLRTARGVGNYDVTGKTKEQVIDEILMERRRELWGEGFGITDVLRNQKAVERMALSEDMQKTEVDCWQEGGSFAKRNPLGHWFLNFPDGKAFSANSSYYLYAIPEKEINANPNL"}}, "experiment_in_all_cases": "glycan array binding signal (z-score within array); higher = stronger binding", "details_in_all_cases": "glycan notation: IUPAC condensed, linker removed", "key": {"Neu5Ac(a2-3)GalNAc": {"biological_target": "Neu5Ac(a2-3)GalNAc", "outline": "(§1)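 The Consortium for Functional Glycomics database supplied 3228 glycan arrays, of which those lacking an available protein sequence were dropped. The binding signal, a within-array Z-score, was averaged across arrays of the same protein sequence and across linkers. Negative scores can be read as non-binding.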"}, "[1]": {"biological_target": "Neu5Ac(a2-3)GalNAc(b1-4)GlcNAc", "outline": "as §1"}, "[2]": {"biological_target": "Neu5Ac(a2-3)[GalNAc(b1-4)]Gal(b1-4)Glc", "outline": "as §1"}, "[3]": {"biological_target": "Neu5Ac(a2-3)[GalNAc(b1-4)]Gal(b1-4)GlcNAc", "outline": "as §1"}, "[4]": {"biological_target": "Neu5Ac(a2-3)[GalNAc(b1-4)]Gal(b1-4)GlcNAc(b1-3)GalNAc", "outline": "as §1"}, "[5]": {"biological_target": "Neu5Ac(a2-3)[Neu5Ac(a2-6)]GalNAc", "outline": "as §1"}, "Neu5Ac(a2-6)Gal": {"biological_target": "Neu5Ac(a2-6)Gal", "outline": "as §1"}, "[6]": {"biological_target": "Neu5Ac(a2-6)Gal(b1-3)GlcNAc(b1-3)[Gal(b1-4)GlcNAc(b1-6)]Gal(b1-4)Glc", "outline": "as §1"}, "Neu5Ac(a2-6)Gal(b1-4)Glc": {"biological_target": "Neu5Ac(a2-6)Gal(b1-4)Glc", "outline": "as §1"}, "[7]": {"biological_target": "Neu5Ac(a2-6)Gal(b1-4)GlcNAc", "outline": "as §1"}, "[8]": {"biological_target": "Neu5Ac(a2-6)Gal(b1-4)GlcNAc(b1-2)Man", "outline": "as §1"}, "[9]": {"biological_target": "Neu5Ac(a2-6)Gal(b1-4)GlcNAc(b1-2)Man(a1-3)Man(b1-4)GlcNAc(b1-4)GlcNAc", "outline": "as §1"}, "[10]": {"biological_target": "Neu5Ac(a2-6)Gal(b1-4)GlcNAc(b1-2)Man(a1-3)[Gal(b1-4)GlcNAc(b1-2)Man(a1-6)]Man(b1-4)GlcNAc(b1-4)GlcNAc", "outline": "as §1"}, "[11]": {"biological_target": "Neu5Ac(a2-6)Gal(b1-4)GlcNAc(b1-2)Man(a1-3)[GlcNAc(b1-2)Man(a1-6)]Man(b1-4)GlcNAc(b1-4)GlcNAc", "outline": "as §1"}, "[12]": {"biological_target": "Neu5Ac(a2-6)Gal(b1-4)GlcNAc(b1-2)Man(a1-3)[GlcNAc(b1-4)][Neu5Ac(a2-6)Gal(b1-4)GlcNAc(b1-2)Man(a1-6)]Man(b1-4)GlcNAc(b1-4)GlcNAc", "outline": "as §1"}, "[13]": {"biological_target": "Neu5Ac(a2-6)Gal(b1-4)GlcNAc(b1-2)Man(a1-3)[Man(a1-6)]Man(b1-4)GlcNAc(b1-4)GlcNAc", "outline": "as §1"}, "[14]": {"biological_target": "Neu5Ac(a2-6)Gal(b1-4)GlcNAc(b1-2)Man(a1-3)[Neu5Ac(a2-3)Gal(b1-4)GlcNAc(b1-2)Man(a1-6)]Man(b1-4)GlcNAc(b1-4)GlcNAc", "outline": "as §1"}, "[15]": {"biological_target": "Neu5Ac(a2-6)Gal(b1-4)GlcNAc(b1-2)Man(a1-3)[Neu5Ac(a2-6)Gal(b1-4)GlcNAc(b1-2)Man(a1-6)]Man(b1-4)GlcNAc(b1-4)GlcNAc", "outline": "as §1"}, "[16]": {"biological_target": "Neu5Ac(a2-6)Gal(b1-4)GlcNAc(b1-2)Man(a1-3)[Neu5Ac(a2-6)Gal(b1-4)GlcNAc(b1-2)Man(a1-6)]Man(b1-4)GlcNAc(b1-4)[Fuc(a1-6)]GlcNAc", "outline": "as §1"}, "[17]": {"biological_target": "Neu5Ac(a2-6)Gal(b1-4)GlcNAc(b1-2)Man(a1-6)Man(b1-4)GlcNAc(b1-4)GlcNAc", "outline": "as §1"}, "[18]": {"biological_target": "Neu5Ac(a2-6)Gal(b1-4)GlcNAc(b1-2)Man(a1-6)[Gal(b1-4)GlcNAc(b1-2)Man(a1-3)]Man(b1-4)GlcNAc(b1-4)GlcNAc", "outline": "as §1"}, "[19]": {"biological_target": "Neu5Ac(a2-6)Gal(b1-4)GlcNAc(b1-2)Man(a1-6)[GlcNAc(b1-2)Man(a1-3)]Man(b1-4)GlcNAc(b1-4)GlcNAc", "outline": "as §1"}, "[20]": {"biological_target": "Neu5Ac(a2-6)Gal(b1-4)GlcNAc(b1-2)Man(a1-6)[Man(a1-3)]Man(b1-4)GlcNAc(b1-4)GlcNAc", "outline": "as §1"}, "[21]": {"biological_target": "Neu5Ac(a2-6)Gal(b1-4)GlcNAc(b1-2)[Neu5Ac(a2-6)Gal(b1-4)GlcNAc(b1-4)]Man(a1-3)[GlcNAc(b1-4)][Neu5Ac(a2-6)Gal(b1-4)GlcNAc(b1-2)[Neu5Ac(a2-6)Gal(b1-4)GlcNAc(b1-6)]Man(a1-6)]Man(b1-4)GlcNAc(b1-4)GlcNAc", "outline": "as §1"}, "[22]": {"biological_target": "Neu5Ac(a2-6)Gal(b1-4)GlcNAc(b1-2)[Neu5Ac(a2-6)Gal(b1-4)GlcNAc(b1-4)]Man(a1-3)[GlcNAc(b1-4)][Neu5Ac(a2-6)Gal(b1-4)GlcNAc(b1-4)Man(a1-6)]Man(b1-4)GlcNAc(b1-4)GlcNAc", "outline": "as §1"}, "[23]": {"biological_target": "Neu5Ac(a2-6)Gal(b1-4)GlcNAc(b1-2)[Neu5Ac(a2-6)Gal(b1-4)GlcNAc(b1-6)]Man(a1-6)[Neu5Ac(a2-6)Gal(b1-4)GlcNAc(b1-2)Man(a1-3)][GlcNAc(b1-4)]Man(b1-4)GlcNAc(b1-4)GlcNAc", "outline": "as §1"}, "[24]": {"biological_target": "Neu5Ac(a2-6)Gal(b1-4)GlcNAc(b1-3)Gal(b1-3)GlcNAc", "outline": "as §1"}, "[25]": {"biological_target": "Neu5Ac(a2-6)Gal(b1-4)GlcNAc(b1-3)Gal(b1-4)GlcNAc", "outline": "as §1"}, "[26]": {"biological_target": "Neu5Ac(a2-6)Gal(b1-4)GlcNAc(b1-3)Gal(b1-4)GlcNAc(b1-2)Man(a1-3)[Neu5Ac(a2-6)Gal(b1-4)GlcNAc(b1-3)Gal(b1-4)GlcNAc(b1-2)Man(a1-6)]GalNAc", "outline": "as §1"}, "[27]": {"biological_target": "Neu5Ac(a2-6)Gal(b1-4)GlcNAc(b1-3)Gal(b1-4)GlcNAc(b1-3)Gal(b1-4)GlcNAc", "outline": "as §1"}, "[28]": {"biological_target": "Neu5Ac(a2-6)Gal(b1-4)GlcNAc(b1-3)Gal(b1-4)GlcNAc(b1-3)Gal(b1-4)GlcNAc(b1-2)Man(a1-3)[Neu5Ac(a2-6)Gal(b1-4)GlcNAc(b1-3)Gal(b1-4)GlcNAc(b1-3)Gal(b1-4)GlcNAc(b1-2)Man(a1-6)]GalNAc", "outline": "as §1"}, "[29]": {"biological_target": "Neu5Ac(a2-6)Gal(b1-4)GlcNAc(b1-3)Gal(b1-4)GlcNAc(b1-3)GalNAc", "outline": "as §1"}, "[30]": {"biological_target": "Neu5Ac(a2-6)Gal(b1-4)GlcNAc(b1-3)Gal(b1-4)GlcNAc(b1-3)[Neu5Ac(a2-6)Gal(b1-4)GlcNAc(b1-3)Gal(b1-4)GlcNAc(b1-6)]GalNAc", "outline": "as §1"}, "[31]": {"biological_target": "Neu5Ac(a2-6)Gal(b1-4)GlcNAc(b1-3)Gal(b1-4)GlcNAc(b1-6)[Gal(b1-3)]GalNAc", "outline": "as §1"}, "[32]": {"biological_target": "Neu5Ac(a2-6)Gal(b1-4)GlcNAc(b1-3)Gal(b1-4)[Fuc(a1-3)]GlcNAc(b1-3)Gal(b1-4)[Fuc(a1-3)]GlcNAc", "outline": "as §1"}, "[33]": {"biological_target": "Neu5Ac(a2-6)Gal(b1-4)GlcNAc(b1-3)GalNAc", "outline": "as §1"}, "[34]": {"biological_target": "Neu5Ac(a2-6)Gal(b1-4)GlcNAc(b1-3)[Neu5Ac(a2-6)Gal(b1-4)GlcNAc(b1-6)]GalNAc", "outline": "as §1"}}, "note": "Some of the results follow.", "data": [{"binder": "B1", "values": [{"measurement": "glycan array binding signal (z-score)", "setting": "Neu5Ac(a2-3)GalNAc", "value": -0.054}, {"measurement": "glycan array binding signal (z-score)", "setting": "[1]", "value": -0.062}, {"measurement": "glycan array binding signal (z-score)", "setting": "[2]", "value": -0.325}, {"measurement": "glycan array binding signal (z-score)", "setting": "[3]", "value": -0.396}, {"measurement": "glycan array binding signal (z-score)", "setting": "[4]", "value": -0.469}, {"measurement": "glycan array binding signal (z-score)", "setting": "[5]", "value": -0.098}, {"measurement": "glycan array binding signal (z-score)", "setting": "Neu5Ac(a2-6)Gal", "value": -0.437}, {"measurement": "glycan array binding signal (z-score)", "setting": "[6]", "value": -0.367}, {"measurement": "glycan array binding signal (z-score)", "setting": "Neu5Ac(a2-6)Gal(b1-4)Glc", "value": -0.325}, {"measurement": "glycan array binding signal (z-score)", "setting": "[7]", "value": -0.067}, {"measurement": "glycan array binding signal (z-score)", "setting": "[8]", "value": -0.44}, {"measurement": "glycan array binding signal (z-score)", "setting": "[9]", "value": -0.021}, {"measurement": "glycan array binding signal (z-score)", "setting": "[10]", "value": -0.047}, {"measurement": "glycan array binding signal (z-score)", "setting": "[11]", "value": -0.512}, {"measurement": "glycan array binding signal (z-score)", "setting": "[12]", "value": -0.352}, {"measurement": "glycan array binding signal (z-score)", "setting": "[13]", "value": 0.504}, {"measurement": "glycan array binding signal (z-score)", "setting": "[14]", "value": 0.54}, {"measurement": "glycan array binding signal (z-score)", "setting": "[15]", "value": -0.142}, {"measurement": "glycan array binding signal (z-score)", "setting": "[16]", "value": 0.022}, {"measurement": "glycan array binding signal (z-score)", "setting": "[17]", "value": -0.566}, {"measurement": "glycan array binding signal (z-score)", "setting": "[18]", "value": -0.724}, {"measurement": "glycan array binding signal (z-score)", "setting": "[19]", "value": -0.282}, {"measurement": "glycan array binding signal (z-score)", "setting": "[20]", "value": -0.192}, {"measurement": "glycan array binding signal (z-score)", "setting": "[21]", "value": 0.243}, {"measurement": "glycan array binding signal (z-score)", "setting": "[22]", "value": -0.361}, {"measurement": "glycan array binding signal (z-score)", "setting": "[23]", "value": -0.162}, {"measurement": "glycan array binding signal (z-score)", "setting": "[24]", "value": 0.04}, {"measurement": "glycan array binding signal (z-score)", "setting": "[25]", "value": -0.002}, {"measurement": "glycan array binding signal (z-score)", "setting": "[26]", "value": 6.47}, {"measurement": "glycan array binding signal (z-score)", "setting": "[27]", "value": -0.061}, {"measurement": "glycan array binding signal (z-score)", "setting": "[28]", "value": 1.84}, {"measurement": "glycan array binding signal (z-score)", "setting": "[29]", "value": 0.206}, {"measurement": "glycan array binding signal (z-score)", "setting": "[30]", "value": -0.201}, {"measurement": "glycan array binding signal (z-score)", "setting": "[31]", "value": -0.406}, {"measurement": "glycan array binding signal (z-score)", "setting": "[32]", "value": 0.72}, {"measurement": "glycan array binding signal (z-score)", "setting": "[33]", "value": -0.109}, {"measurement": "glycan array binding signal (z-score)", "setting": "[34]", "value": -0.601}]}]}
